According to publication PMC11968563:

Biological target: wild-type Schistosoma japonicum glutathione S-transferase (sjGST) (Schistosoma japonicum) [GST: P08515]
Assay: native gel or EMSA; non-denaturing sample preparation and electrophoresis; precast native gel 4%-15%, Tris/glycine running buffer, Coomassie-stained; monomer and dimer bands separated

Substance: wild-type Schistosoma japonicum glutathione S-transferase (sjGST) (a stretch of the chain, chain not printed) (enzyme; other documents disagree on this pair)
- stoichiometry N: 2
